IC50 is the fitted dose that halves viability relative to control wells, and lower means more sensitive; where the fit passes the top or lowest dose, that dose stands as a limit. AUC, from the same fit, is the share of area under the viability curve across the 256-fold dose range; it is 1 without any effect and falls as sensitivity rises. For part of these data: An inferred top dose is not printed in the source and was worked back from the curve model.
What was measured:
Assay in all cases: Viability of human cancer cell lines after 72 h of drug (GDSC screen)
Vinorelbine = compound: CCC1=C[C@@H]2CN(C1)Cc1c([nH]c3ccccc13)[C@@](C(=O)OC)(c1cc3c(cc1OC)N(C)[C@H]1[C@@](O)(C(=O)OC)[C@H](OC(C)=O)[C@]4(CC)C=CCN5CC[C@]31[C@@H]54)C2 [Vinorelbine]; conditions: top dose 0.064 µM; top dose inferred
Experimental: (§1)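 Human cancer cell lines in 384-well plates, medium with 10% serum, drug for 72 h over a 256-fold dose range (nine 2-fold or five 4-fold steps up to the top dose). Adherent lines were fixed and stained with the nucleic acid dye Syto60, suspension lines read with resazurin; signal relative to control wells, capped at 0 and 100%. One two-parameter sigmoid per drug and line, fitted in a mixed model over all curves with the slope shared within a line.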

WHI-P97 = compound: COc1cc2ncnc(Nc3cc(Br)c(O)c(Br)c3)c2cc1OC [WHI-P97]; conditions: top dose 10.24 µM; top dose inferred
Experimental: as §1

QL-XI-92 = compound: C=CC(=O)Nc1cc(NC(=O)c2ccc(C)c(NC(=O)c3ccno3)c2)cc(C(F)(F)F)c1 [QL-XI-92]; conditions: top dose 10.24 µM; top dose inferred
Experimental: as §1

AG-014699 = compound: CNCc1ccc(-c2[nH]c3cc(F)cc4c3c2CCNC4=O)cc1 [AG-014699]; conditions: top dose 5 µM; top dose inferred
Experimental: as §1

NU-7441 = compound: O=c1cc(N2CCOCC2)oc2c(-c3cccc4c3sc3ccccc34)cccc12 [NU-7441]; conditions: top dose 2 µM; top dose inferred
Experimental: as §1

Phenformin = compound: N=C(N)NC(=N)NCCc1ccccc1 [Phenformin]; conditions: top dose 4000 µM; top dose inferred
Experimental: as §1

EHT 1864 = compound: O=c1cc(CN2CCOCC2)occ1OCCCCCSc1ccnc2cc(C(F)(F)F)ccc12 [EHT 1864]; conditions: top dose 10 µM; top dose inferred
Experimental: as §1

XL-184 = compound: COc1cc2nccc(Oc3ccc(NC(=O)C4(C(=O)Nc5ccc(F)cc5)CC4)cc3)c2cc1OC [XL-184]; conditions: top dose 5.12 µM; top dose inferred
Experimental: as §1

Gefitinib = compound: COc1cc2ncnc(Nc3ccc(F)c(Cl)c3)c2cc1OCCCN1CCOCC1 [Gefitinib]; conditions: top dose 0.5 µM
Experimental: as §1

Row | Cell Line | AUC (Vinorelbine) | IC50 (Vinorelbine) [µM] | AUC (WHI-P97) | IC50 (WHI-P97) [µM] | AUC (QL-XI-92) | IC50 (QL-XI-92) [µM] | AUC (AG-014699) | IC50 (AG-014699) [µM] | AUC (NU-7441) | IC50 (NU-7441) [µM] | AUC (Phenformin) | IC50 (Phenformin) [µM] | AUC (EHT 1864) | IC50 (EHT 1864) [µM] | AUC (XL-184) | IC50 (XL-184) [µM] | AUC (Gefitinib) | IC50 (Gefitinib) [µM]
1 | SKG-IIIa (cervix, adherent) | 0.865 | > 0.064 | 0.977 | > 10.2 | 0.983 | > 10.2 | 0.981 | > 5 | 0.956 | > 2 | 0.28 | 47.3 | 0.924 | > 10 | 0.982 | > 5.12 | 0.963 | > 0.5
2 | SKN (uterus, adherent) | 0.755 | 0.026 | 0.957 | > 10.2 | 0.911 | > 10.2 | 0.969 | > 5 | 0.863 | > 2 | 0.94 | > 4000 | 0.958 | > 10 | 0.98 | > 5.12 | 0.942 | > 0.5
3 | SKN-3 (head and neck, adherent) | 0.882 | > 0.064 | 0.963 | > 10.2 | 0.983 | > 10.2 | 0.941 | > 5 | 0.901 | > 2 | 0.921 | > 4000 | 0.939 | > 10 | 0.973 | > 5.12 | 0.842 | 0.448
4 | SNG-M (endometrium, adherent) | 0.422 | 0.00246 | 0.882 | > 10.2 | 0.92 | > 10.2 | 0.983 | > 5 | 0.967 | > 2 | 0.983 | > 4000 | 0.976 | > 10 | 0.892 | > 5.12 | 0.984 | > 0.5
5 | SNU-182 (liver, adherent) | 0.643 | 0.0101 | 0.978 | > 10.2 | 0.986 | > 10.2 | 0.986 | > 5 | 0.972 | > 2 | 0.973 | > 4000 | 0.981 | > 10 | 0.956 | > 5.12 | 0.946 | > 0.5
6 | SNU-387 (liver, adherent) | 0.621 | 0.00905 | 0.97 | > 10.2 | 0.984 | > 10.2 | 0.984 | > 5 | 0.948 | > 2 | 0.837 | 3230 | 0.973 | > 10 | 0.758 | 2.01 | 0.984 | > 0.5
7 | SNU-423 (liver, adherent) | 0.56 | 0.00602 | 0.965 | > 10.2 | 0.879 | > 10.2 | 0.983 | > 5 | 0.962 | > 2 | 0.843 | 3570 | 0.982 | > 10 | 0.931 | > 5.12 | 0.983 | > 0.5
8 | SNU-449 (liver, adherent) | 0.916 | > 0.064 | 0.916 | > 10.2 | 0.961 | > 10.2 | 0.986 | > 5 | 0.942 | > 2 | 0.768 | 1630 | 0.939 | > 10 | 0.858 | 4.87 | 0.933 | > 0.5
9 | SR (lymphoid neoplasm, suspension) | 0.524 | 0.00461 | 0.937 | > 10.2 | 0.692 | 2.08 | 0.906 | > 5 | 0.899 | > 2 | 0.508 | 263 | 0.92 | > 10 | 0.911 | > 5.12 | 0.987 | > 0.5
10 | SU8686 (pancreas, adherent) | 0.768 | 0.0269 | 0.977 | > 10.2 | 0.982 | > 10.2 | 0.974 | > 5 | 0.96 | > 2 | 0.813 | 2490 | 0.959 | > 10 | 0.982 | > 5.12 | 0.905 | > 0.5
11 | SU-DHL-5 (B-cell lymphoma, suspension) | 0.387 | 0.00212 | 0.994 | > 10.2 | 0.895 | 7.01 | 0.976 | > 5 | 0.912 | 1.58 | 0.015 | < 15.6 | 0.981 | > 10 | 0.916 | 4.2 | 0.983 | > 0.5
12 | SUIT-2 (pancreas, adherent) | 0.866 | 0.0616 | 0.952 | > 10.2 | 0.948 | > 10.2 | 0.976 | > 5 | 0.986 | > 2 | 0.461 | 194 | 0.968 | > 10 | 0.843 | 3.9 | 0.982 | > 0.5
13 | SW13 (adrenal gland, adherent) | 0.544 | 0.00528 | 0.988 | > 10.2 | 0.987 | > 10.2 | 0.965 | > 5 | 0.966 | > 2 | 0.863 | 3520 | 0.797 | 4.8 | 0.988 | > 5.12 | 0.936 | > 0.5
14 | SW626 (ovary, adherent) | 0.757 | 0.0259 | 0.957 | > 10.2 | 0.933 | > 10.2 | 0.984 | > 5 | 0.967 | > 2 | 0.778 | 1940 | 0.956 | > 10 | 0.926 | > 5.12 | 0.983 | > 0.5
15 | SW780 (bladder, adherent) | 0.678 | 0.0133 | 0.985 | > 10.2 | 0.986 | > 10.2 | 0.986 | > 5 | 0.983 | > 2 | 0.738 | 1280 | 0.959 | > 10 | 0.938 | > 5.12 | 0.985 | > 0.5
16 | SW948 (large intestine, adherent) | 0.732 | 0.0254 | 0.962 | > 10.2 | 0.976 | > 10.2 | 0.982 | > 5 | 0.982 | > 2 | 0.543 | 344 | 0.965 | > 10 | 0.937 | > 5.12 | 0.979 | > 0.5
17 | SW1271 (small cell lung carcinoma, adherent) | 0.754 | 0.0245 | 0.828 | 7.64 | 0.911 | > 10.2 | 0.975 | > 5 | 0.978 | > 2 | 0.762 | 1640 | 0.984 | > 10 | 0.872 | > 5.12 | 0.984 | > 0.5
18 | SW1417 (large intestine, adherent) | 0.909 | > 0.064 | 0.969 | > 10.2 | 0.977 | > 10.2 | 0.986 | > 5 | 0.978 | > 2 | 0.835 | 3280 | 0.962 | > 10 | 0.937 | > 5.12 | 0.986 | > 0.5
19 | SW1573 (lung adenocarcinoma, adherent) | 0.711 | 0.0197 | 0.974 | > 10.2 | 0.963 | > 10.2 | 0.875 | > 5 | 0.96 | > 2 | 0.71 | 1220 | 0.878 | > 10 | 0.967 | > 5.12 | 0.976 | > 0.5
20 | SW1710 (bladder, adherent) | 0.441 | 0.00275 | 0.92 | > 10.2 | 0.906 | > 10.2 | 0.935 | > 5 | 0.974 | > 2 | 0.929 | > 4000 | 0.899 | > 10 | 0.927 | > 5.12 | 0.977 | > 0.5
21 | SW1783 (glioma, adherent) | 0.953 | > 0.064 | 0.991 | > 10.2 | 0.988 | > 10.2 | 0.99 | > 5 | 0.965 | > 2 | 0.732 | 1060 | 0.954 | > 10 | 0.962 | > 5.12 | 0.982 | > 0.5
22 | Saos-2 (osteosarcoma, adherent) | 0.948 | > 0.064 | 0.981 | > 10.2 | 0.981 | > 10.2 | 0.977 | > 5 | 0.962 | > 2 | 0.964 | > 4000 | 0.973 | > 10 | 0.981 | > 5.12 | 0.976 | > 0.5
23 | T84 (large intestine, adherent) | 0.863 | 0.0568 | 0.968 | > 10.2 | 0.969 | > 10.2 | 0.984 | > 5 | 0.988 | > 2 | 0.811 | 2160 | 0.976 | > 10 | 0.94 | > 5.12 | 0.986 | > 0.5
24 | T98G (glioma, adherent) | 0.74 | 0.0182 | 0.977 | > 10.2 | 0.984 | > 10.2 | 0.967 | > 5 | 0.982 | > 2 | 0.846 | 2590 | 0.979 | > 10 | 0.911 | > 5.12 | 0.99 | > 0.5
25 | TGBC11TKB (stomach, adherent) | 0.795 | 0.0259 | 0.99 | > 10.2 | 0.991 | > 10.2 | 0.988 | > 5 | 0.983 | > 2 | 0.852 | 2540 | 0.982 | > 10 | 0.976 | > 5.12 | 0.984 | > 0.5
26 | TK10 (kidney, adherent) | 0.87 | > 0.064 | 0.885 | > 10.2 | 0.957 | > 10.2 | 0.975 | > 5 | 0.939 | > 2 | 0.975 | > 4000 | 0.891 | > 10 | 0.921 | > 5.12 | 0.871 | > 0.5
27 | TK (B-cell lymphoma, suspension) | 0.743 | 0.0184 | 0.961 | > 10.2 | 0.99 | > 10.2 | 0.99 | > 5 | 0.99 | > 2 | 0.576 | 396 | 0.99 | > 10 | 0.922 | > 5.12 | 0.986 | > 0.5
28 | TMK-1 (stomach, adherent) | 0.506 | 0.00416 | 0.963 | > 10.2 | 0.984 | > 10.2 | 0.946 | > 5 | 0.916 | > 2 | 0.904 | > 4000 | 0.972 | > 10 | 0.967 | > 5.12 | 0.962 | > 0.5
29 | TOV-21G (ovary, adherent) | 0.958 | > 0.064 | 0.982 | > 10.2 | 0.984 | > 10.2 | 0.943 | > 5 | 0.97 | > 2 | 0.855 | 3630 | 0.858 | 9.38 | 0.984 | > 5.12 | 0.949 | > 0.5
30 | TOV-112D (ovary, adherent) | 0.365 | 0.00169 | 0.866 | 9.28 | 0.915 | > 10.2 | 0.961 | > 5 | 0.881 | > 2 | 0.685 | 826 | 0.852 | 7.81 | 0.922 | > 5.12 | 0.952 | > 0.5

From the supplement of paper PMC4967469
